# Data reported in publication PMC4336329 (PLoS ONE, 2015).
# About 2,200 (0.71%) of roughly 310,000 compounds showed an effect of 50% or more. Effects have a minus sign here. Some of the results follow.
# Target: human ether-à-go-go-related gene (hERG) potassium channel (human, UniProt Q12809)
# Experiment: primary screen, population patch clamp on CHO cells stably expressing hERG
# Sequence of human ether-à-go-go-related gene (hERG) potassium channel (Q12809 whole entry, looked up): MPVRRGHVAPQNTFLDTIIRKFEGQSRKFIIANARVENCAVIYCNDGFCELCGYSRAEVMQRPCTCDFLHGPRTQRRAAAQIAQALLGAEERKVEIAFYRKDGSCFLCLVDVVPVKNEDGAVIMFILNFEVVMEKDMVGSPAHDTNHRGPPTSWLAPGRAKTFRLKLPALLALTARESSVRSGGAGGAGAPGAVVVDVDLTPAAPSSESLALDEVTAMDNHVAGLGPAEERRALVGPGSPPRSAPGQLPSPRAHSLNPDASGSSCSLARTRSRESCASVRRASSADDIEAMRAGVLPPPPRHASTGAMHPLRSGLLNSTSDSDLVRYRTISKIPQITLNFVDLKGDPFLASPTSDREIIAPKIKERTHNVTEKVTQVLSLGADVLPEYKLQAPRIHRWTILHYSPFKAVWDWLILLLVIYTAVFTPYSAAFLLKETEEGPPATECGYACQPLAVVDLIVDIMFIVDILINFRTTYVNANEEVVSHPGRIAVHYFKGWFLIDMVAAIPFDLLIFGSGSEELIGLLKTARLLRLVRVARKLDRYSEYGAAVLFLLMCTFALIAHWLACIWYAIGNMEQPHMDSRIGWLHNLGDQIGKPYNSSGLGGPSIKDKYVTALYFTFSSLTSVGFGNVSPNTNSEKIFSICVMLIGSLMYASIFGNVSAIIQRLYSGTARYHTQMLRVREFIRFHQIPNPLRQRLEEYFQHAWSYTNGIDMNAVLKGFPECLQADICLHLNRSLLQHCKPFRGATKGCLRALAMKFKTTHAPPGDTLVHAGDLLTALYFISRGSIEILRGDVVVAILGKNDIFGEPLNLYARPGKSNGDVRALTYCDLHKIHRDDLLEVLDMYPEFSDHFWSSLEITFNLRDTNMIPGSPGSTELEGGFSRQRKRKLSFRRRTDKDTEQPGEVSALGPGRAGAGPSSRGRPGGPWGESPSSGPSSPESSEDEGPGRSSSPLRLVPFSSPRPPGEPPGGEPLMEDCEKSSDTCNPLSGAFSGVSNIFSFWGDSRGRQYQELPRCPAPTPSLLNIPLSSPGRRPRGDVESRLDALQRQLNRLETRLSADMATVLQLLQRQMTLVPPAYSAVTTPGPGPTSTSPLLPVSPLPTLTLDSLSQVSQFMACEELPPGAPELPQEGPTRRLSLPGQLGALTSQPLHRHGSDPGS
row,Compound,"hERG current change (%, negative = inhibition) at 1uM"
1,CC(C)CN1CCC(=O)N(CCSc2ccccc2)CC1,-0.191%
2,Nc1ccc2c(c1)C(=O)Cc1ccccc1S2,4.28%
3,CC(C)NC(=O)c1onc(CSc2cccc3ccccc23)c1C(=O)O,24.1%
4,C=CCN1C(=O)C2(OCCO2)c2cc(C)ccc21,3.37%
5,CC(NC(=O)CN1CCCC1)c1ccccc1 (centres unmarked),16.4%
6,O=C(Cn1cccc1C(=O)c1ccccc1)NCCCc1ccccc1,7.87%
7,O=C(CCc1ccccc1)NNC(=O)c1cc(Cl)ccc1O,12.2%
8,Cc1ccc2[nH]c(=O)c(CN(CCCN(C)C)C(=O)Nc3ccc(F)cc3)cc2c1,-37%
9,CCc1c(O)nc(SCC(=O)NCc2ccco2)[nH]c1=O,-0.989%
10,C=CCN(CC=C)C(=O)c1ccncc1,4.58%
11,CC1(C(=O)NCc2ccc(F)cc2)Oc2ccccc2NC1=O (centres unmarked),-2.56%
12,N#C/C(=C(/O)CCl)c1nnc2n1CCCCC2,11.1%
13,COc1cccc(CNc2nn[nH]n2)c1OC,16.1%
14,CC(C)c1ccc(-c2nc3c([nH]2)c(=O)n(C)c(=O)n3C)cc1,10.7%
15,COCCn1c(SCC(=O)N2CCCCC2)nc2c(c1=O)SC(C)C2 (centres unmarked),12.4%
16,CC(C)Cc1nc2ccccc2[nH]1,14.7%
17,COc1ccc2[nH]c(C(=O)O)c(CCC(=O)O)c2c1,17.2%
18,O=c1c2ccccc2nnn1Cc1ccc(Br)cc1,13.5%
19,COc1cccc(C(=O)Nc2cnn(C(C)C)c2)c1,15.4%
20,Clc1ccc(C2[C@H]3CN(Cc4ccc(-c5ccccc5)cc4)[C@H](c4ccccc4)C34CC2(c2ccccc2)C4)cn1 (some centres unmarked),3.84%
21,N#Cc1cc(-c2ccc(Cl)cc2)cnc1Sc1ccccc1,2.86%
22,CC1CCCCC1NC(=O)CN1CCN(Cc2ccccc2Cl)C1=O (centres unmarked),2.68%
23,C/C(N)=C(/C#N)C(=O)CSc1nc2ccc(C)cc2[nH]1,11%

row,Compound,"hERG current change (%, negative = inhibition) at 1uM"
1,CCC(=O)Nc1cccc(NC(=O)c2ccc(C)cc2Cl)c1,24.1%
2,CCCCn1c(N)c(N(CCOC)C(=O)COC(=O)CCOc2ccccc2)c(=O)[nH]c1=O,5.89%
3,CCOc1ccccc1NC(=O)/C(C#N)=C/c1cccnc1,10.7%
4,COc1cccc(/C=N/Nc2nnc(C)n2N)c1OCc1ccccc1Cl.Cl,9.89%
5,Cc1[nH]nc2nc3c(c(OC(=O)c4ccccc4)c12)c(=O)n(C)c(=O)n3C,5.4%
6,O=C(O)CC1=C(Nc2ccccc2)C(=O)N(c2ccccc2)C1c1ccc(Br)cc1 (centres unmarked),12.2%
7,CC(=O)N1CC(=O)Nc2ccc(Br)cc2C1c1ccc(F)cc1 (centres unmarked),2.13%
8,Cc1cc(C)c(C(=O)COC(=O)[C@H](C)Nc2ccc(C(F)(F)F)cc2[N+](=O)[O-])c(C)c1,18.8%
9,COc1ccc(N2CCN(C(=O)CN3C(=O)NC(C)(C4CC4)C3=O)CC2)cc1 (centres unmarked),8.53%
10,COc1ccc(CCN2C(=O)C(O)=C(C(=O)c3ccco3)C2c2cccs2)cc1OC (centres unmarked),18%
11,O=c1[nH]nc(-c2ccc(F)cc2)cc1Cc1ccccn1,7.38%
12,COc1ccc(OC)c(NC(=O)Nc2nnc(N3CCC(C)CC3)s2)c1,12%
13,Cc1ccccc1NC(=S)NCc1ccc(Cl)cc1,11.6%
14,COc1ccc(OCCN2C(=O)c3cccc(N)c3C2=O)cc1,9.4%
15,Cc1ccc(S(=O)(=O)Nc2ccc(Cl)cc2)cc1NC(=O)c1cc2c(s1)CCCC2,-1.78%
16,Cc1ccc(-n2c(CSc3nc(C)cc(C)n3)nnc2SCC(=O)Nc2nccs2)cc1,10.1%
17,COc1cc(C(=O)NCCOc2ccccc2C)cc(OC)c1OC,12.3%
18,C/C(=N\NC(=O)c1ccc(F)cc1)c1cccc(NC(=O)c2cccc(F)c2)c1,12.6%
19,Cc1ccc(Cn2c(N3CCN(C)CC3)nc3c2c(=O)[nH]c(=O)n3C)cc1,8.23%
20,COc1ccccc1NC(=O)Nc1ncccc1C,-0.0475%
21,O=C(c1ccccc1Cl)N1CCC(N2CCC(C(=O)N3CCCC3)CC2)CC1,1.54%
22,COc1ccc(CCNC(=O)COc2ccc(S(=O)(=O)N3CCCC3)cc2)cc1,4.23%
23,Cc1cccc(C(=O)N[C@H](C(=O)Nc2nc3ccc(S(C)(=O)=O)cc3s2)C(C)C)c1,2.4%

row,Compound,"hERG current change (%, negative = inhibition) at 1uM"
1,COc1ccc(CC(=O)NNC(=O)c2cccs2)cc1,7.01%
2,Cl.c1ccc(CSC2=NCCCN2)cc1,13.3%
3,COc1ccc(N2C(=O)CC(N3CCN(c4ccccc4)CC3)C2=O)cc1 (centres unmarked),14.5%
4,O=C(Cn1cnc2ccccc21)Nc1ccc(SC(F)F)cc1,-12.5%
5,CCOC(=O)N1CCN(C(=O)COc2ccc(S(=O)(=O)Nc3ccc(OCC)cc3)cc2)CC1,11.5%
6,CCC(Cc1ccccc1)NS(=O)(=O)c1csc(C(N)=O)c1 (centres unmarked),22.5%
7,O=C(Nc1cccc(C(F)(F)F)c1)/C(=C\c1ccco1)NC(=O)c1cccs1,6.67%
8,Cn1cc(C(=O)NS(=O)(=O)Nc2ccc(Br)cn2)c2ccccc21,14.9%
9,COCCNc1nc(CSc2ccccc2)nc2sc(C)c(C)c12,11.8%
10,O=C(CC1CCCC1)N1CCN(S(=O)(=O)c2ccccc2)CC1,-6.89%
11,O=C(CCN1C(=O)c2ccccc2C1=O)N1CCN(c2ccccn2)CC1,-5.13%
12,OC(Cn1cccn1)c1ccccc1 (centres unmarked),21.5%
13,CN(Cc1ccccc1)C1CCNCC1.Cl,17.5%
14,COc1ccc(C)cc1N(C(=O)c1ccc(F)cc1)c1nc2ccccc2s1,8.84%
15,COC(=O)Nc1ccc2c(c1)N(C(=O)CCCl)c1ccccc1S2,12.5%
16,Cc1ccccc1C(=O)Nc1ccc(S(=O)(=O)N2CC(C)OC(C)C2)cc1 (centres unmarked),16.6%
17,Cc1cc(C)cc(OCC(=O)NC2CCCc3ccccc32)c1 (centres unmarked),0.476%
18,CCOC(=O)CSc1nnc(-c2cc(OC)c(OC)c(OC)c2)o1,9.22%
19,COc1ccc(OC)c(N(CC(=O)O)S(=O)(=O)c2ccc(OC)c(OC)c2)c1,8.13%
20,CCS(=O)(=O)Nc1ccc(-c2cc(-c3ccccc3)c3cc(C)ccc3n2)cc1,-0.275%
21,CCCn1c(NC(=O)C2CCN(S(=O)(=O)c3cccs3)CC2)nc2ccccc21,-5.74%
22,Cc1cc(C(=O)N2CCCC(N3CCN(c4cccc(Cl)c4)CC3)C2)nn1C (centres unmarked),-3.76%
23,O=C(Nc1ccc2c3c(cccc13)CC2)c1ccco1,0.275%

row,Compound,"hERG current change (%, negative = inhibition) at 1uM"
1,Cc1ccc2c(Cl)c(C(=O)Nc3cc(C)on3)sc2c1,9.53%
2,CCCCNC(=O)CSc1nc2ccccc2c(=O)n1C1CCCC1,-3.19%
3,COC(=O)c1nc(NC(=S)NC(=O)c2cccs2)sc1C,14.7%
4,CCn1nc(NC(=O)C(C)C)c2cc3cccc(C)c3nc21,15.9%
5,CC(=O)N1CN(C2CC(C)(C)NC(C)(C)C2)Cc2c1sc1c2CCCC1,14.2%
6,S=C(c1ccc(-c2ccc(Br)cc2)o1)N1CCOCC1,7.21%
7,O=C1CCCCN1CCc1c[nH]c2ccccc12,12%
8,O=C(CCc1ccccc1)N=C1SC2CS(=O)(=O)CC2N1c1ccc(F)cc1 (centres unmarked),5.22%
9,CC(=O)Nc1ccc(NCc2ccc(C)s2)cc1,2.48%
10,COc1ccccc1NC(=O)CSc1nnc(NC(=O)C2CCC2)s1,14.8%
11,Cc1ccc(OCC(=O)NCC(=O)Nc2ccc(F)cc2)c([N+](=O)[O-])n1,-18.1%
12,CCc1ccccc1NC(=O)CCc1c(C)nc(SC)nc1C,15.5%
13,O=C(NCc1ccccc1Cl)C(=O)c1cn(CC(=O)N2CCOCC2)c2ccccc12,13.1%
14,O=C(CCCCCl)Nc1c2c(nc3ccccc13)CCC2,2.02%
15,CC(N=C(NC#N)Nc1ccncc1)C(C)(C)C (centres unmarked),-0.576%
16,COc1ccc(CCNc2nc(-c3ccccn3)cs2)cc1OC,17.7%
17,Cc1cc([N+](=O)[O-])c2c(c1C)C1C=CCC1C(c1ccccn1)N2 (centres unmarked),17.4%
18,CCCCN1C(C(=O)Nc2ncccn2)=C(O)c2ccccc2S1(=O)=O,11.6%
19,CCn1c(CNC(=O)c2ccco2)nnc1SCC(=O)Nc1ccccc1Cl,9.73%
20,COC(=O)C1=C(NC(=O)c2ccc(C)c(C)c2)CCS1,23.7%
21,CC1(C)SC(=S)N(/N=C/c2cccnc2)C1N(O)C(=O)NC1CCCCC1 (centres unmarked),11.3%
22,CCOC(=O)c1ccc(-c2ccc(CO)o2)cc1,8.15%
23,Cc1cc(C)n(-c2ccc(C(=O)Oc3ccc4c(c3)OCO4)cc2)n1,6.44%
